# The inconclusive results got no clear call from the source; some entries with a clear call stand among them for comparison. For some assays here: Potencies of inconclusive entries are doubtful fits and often do not repeat. The source made the active and inactive calls. Unless noted, calls follow the shape of the dose curve; as a rule, active = well fitted curve in the direction sought with a large enough effect in the repeat runs; inconclusive = weak or mixed curves; inactive = no such curve, though single readings can be large; an effect the other way counts as inactive or inconclusive.
# What was measured:
# [1] = qHTS assay to identify small molecule HDAC inhibitors (AID 1259364); also: nearly all actives have a fitted effect of over 45% in size; also: potency is read from the fitted curve at half-maximal effect; as to activity change, negative = inhibition: top concentration of the series differs between compounds; % is scaled to controls: 0 for no effect and ±100 for the full control effect
# Summary of the method: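 Endogenous HDAC class I/II activity was measured in wild-type HCT-116 cells by HDAC-Glo luminescence after 2 h compound treatment.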
# [2] = qHTS assay to identify small molecule antagonists of the sonic hedgehog signaling (Shh) pathway (AID 1259369; calls by dose curve; also: potency is read from the fitted curve at half-maximal effect; nearly all actives have a fitted effect of over 45% in size)
# Summary of the method: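 Screening used 3T3Gli1-Luc cells at 2,000 per well, compounds delivered in DMSO, and conditioned medium as agonist stimulus; plates incubated 24hr at 37 C and 5% CO2 before a 30min luciferase step.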
# [3] = target: Estrogen receptor beta (Homo sapiens) (UniProt Q92731); assay: qHTS assay to identify small molecule antagonists of the estrogen receptor beta (ER-beta) signaling pathway (AID 1259378; active = well fitted inhibition curve with a large enough effect in the signal ratio in the repeat runs, not every such curve was filed as active; inconclusive = weak or mixed curves, or effect the other way; inactive = no such curve, though single readings can be large or run the other way; the % refers to the signal ratio; also: potency is read from the fitted curve at half-maximal effect; as to activity, negative = inhibition: % is scaled to controls: 0 for no effect and ±100 for the full control effect); conditions: ER-beta-UAS-bla HEK293T, beta-lactamase FRET ratio, 16 h; activity, negative = inhibition: at 92.4 µM (top of the series) unless noted
# Summary of the method: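 ER-beta-UAS-bla HEK293T (GripTite) cells in 2% charcoal-stripped FBS medium were preincubated 6 hr at 37C, dosed with compound, then stimulated with 1 nM E2 (final) for 16 hr; beta-lactamase reporter read by B/G FRET fluorescence after 2 hr substrate loading.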
# [4] = qHTS assay to identify small molecule agonists of the estrogen receptor beta (ER-beta) signaling pathway - cell viability counter screen (AID 1259380); also: potency is read from the fitted curve at half-maximal effect; nearly all actives have a fitted effect of over 30% in size
# Summary of the method: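 Viability of ER-beta-UAS-bla HEK293T cells was determined by CellTiter-Glo luminescence following 16 hr treatment with test compounds at 37C.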
# [5] = target: Progesterone receptor (Homo sapiens) (UniProt P06401); assay: qHTS assay to identify small molecule agonists of the progesterone receptor (PR) signaling pathway (AID 1346784; calls by dose curve; also: nearly all actives have a fitted effect of over 30% in size; also: potency is read from the fitted curve at half-maximal effect; as to activation: % is scaled to controls: 0 for no effect and ±100 for the full control effect); conditions: PR-UAS-bla HEK293T, beta-lactamase FRET ratio, 16 h; activation: at 92.4 µM (top of the series) unless noted
# Summary of the method: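 Using charcoal-stripped serum (2%) to limit endogenous steroids, PR-UAS-bla HEK 293T cells received compounds for 16 hr at 37C after 6 hr plating; beta-lactamase FRET fluorescence was recorded following 2 hr substrate loading at room temperature.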
# [6] = target: Progesterone receptor (Homo sapiens) (UniProt P06401); assay: qHTS assay to identify small molecule antagonists of the progesterone receptor (PR) signaling pathway (AID 1346795; active = well fitted inhibition curve with a large enough effect in the signal ratio in the repeat runs, not every such curve was filed as active; inconclusive = weak or mixed curves; the % refers to the signal ratio; also: potency is read from the fitted curve at half-maximal effect; as to activity change, negative = inhibition: % is scaled to controls: 0 for no effect and ±100 for the full control effect); conditions: PR-UAS-bla HEK293T, beta-lactamase FRET ratio, 16 h; activity change, negative = inhibition: at 92.4 µM (top of the series) unless noted
# Summary of the method: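 Inhibition of R5020-induced (1 nM final) beta-lactamase reporter signal in PR-UAS-bla HEK293T cells was scored by FRET fluorescence after overnight (16 hr) compound treatment.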
# [7] = qHTS assay to identify small molecule agonists of the progesterone receptor (PR) signaling pathway - cell viability counter screen (AID 1346799; calls by dose curve; also: nearly all actives have a fitted effect of over 45% in size; also: potency is read from the fitted curve at half-maximal effect)
# Summary of the method: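 Cytotoxicity in PR-bla HEK293T cells: 16 h compound, 37C; CellTiter-Glo added post-FRET read; luminescence after 30 min RT.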
# [8] = qHTS assay to identify small molecule antagonists of the sonic hedgehog signaling (Shh) pathway - cell viability counter screen (AID 1259367); also: potency is read from the fitted curve at half-maximal effect; nearly all actives have a fitted effect of over 55% in size
# Summary of the method: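 NIH/3T3-derived Gli1-Luc reporter cells (2,000 per well) rested 4 hr at 37 C, then received DMSO compounds plus conditioned medium. After 23 hr of treatment, CellTiter-Fluor was added for 1 hr at 37C and fluorescence read.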
# [9] = target: Thyrotropin receptor (Homo sapiens) (UniProt P16473); assay: qHTS assay to identify small molecule antagonists of the thyroid stimulating hormone receptor (TSHR) signaling pathway (AID 1259385; calls by dose curve; also: % is scaled to controls: 0 for no effect and ±100 for the full control effect; nearly all actives have a fitted effect of over 20% in size); conditions: TSHR-HEK293 cAMP HTRF, TSH-stimulated antagonist mode; activity change, negative = inhibition: at 92.4 µM (top of the series) unless noted
# Summary of the method: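 TSHR-HEK293 cells were plated and held 18 h at 37C/5% CO2, then given compound plus Ro20-1724 and stimulated with TSH at 1.5 ng/mL final. After 30 min at room temperature, cAMP was detected with cAMP-d2/anti-cAMP-cryptate (1 h) by fluorescence.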
# [10] = qHTS assay to identify small molecule agonists of the estrogen receptor alpha (ER-alpha) signaling pathway in the presence of an antagonist - cell viability counter screen (AID 1259386);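 also: potency is read from the fitted curve at half-maximal effect; cells exposed to compounds for 22 h at 37 °C before the viability read; nearly all actives have a fitted effect of over 30% in size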
# Summary of the method: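 Fluorescent CellTiter-Fluor viability signal from VM7Luc4E2 cells, with the reagent added during the final hour of a 22hr compound exposure at 37C in the presence of 10.0nM ICI-182,780.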
# [11] = qHTS assay to identify small molecule antagonists of the progesterone receptor (PR) signaling pathway - cell viability counter screen (AID 1346798); also: potency is read from the fitted curve at half-maximal effect; nearly all actives have a fitted effect of over 50% in size
# Summary of the method: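 ATP content as viability readout: CellTiter-Glo luminescence, 30 min room temperature, in PR-UAS-bla HEK293T cells after 16 hr compound/R5020 treatment at 37C and 5% CO2.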
# [12] = target: Estrogen receptor beta (Homo sapiens) (UniProt Q92731); assay: qHTS assay to identify small molecule agonists of the estrogen receptor beta (ER-beta) signaling pathway (AID 1259377; active = well fitted activation curve with a large enough effect in the signal ratio in the repeat runs, not every such curve was filed as active; inconclusive = weak or mixed curves, or effect the other way; the % refers to the signal ratio; also: potency is read from the fitted curve at half-maximal effect); conditions: ER-beta-UAS-bla HEK293T, beta-lactamase FRET ratio, 16 h; activation: at 92.4 µM (top of the series) unless noted
# Summary of the method: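 In HEK293T cells bearing a UAS-beta-lactamase reporter under ER-beta control, DMSO-delivered compounds were incubated for 16 hr at 37C. Activity was detected as fluorescence 2 hours after LiveBLAzer B/G FRET substrate addition.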
# Tags tell the direction and shape of the fitted curve or compound fluorescence and quenching.
# Sequence of UniProt Q92731 (Q92731 whole entry, looked up): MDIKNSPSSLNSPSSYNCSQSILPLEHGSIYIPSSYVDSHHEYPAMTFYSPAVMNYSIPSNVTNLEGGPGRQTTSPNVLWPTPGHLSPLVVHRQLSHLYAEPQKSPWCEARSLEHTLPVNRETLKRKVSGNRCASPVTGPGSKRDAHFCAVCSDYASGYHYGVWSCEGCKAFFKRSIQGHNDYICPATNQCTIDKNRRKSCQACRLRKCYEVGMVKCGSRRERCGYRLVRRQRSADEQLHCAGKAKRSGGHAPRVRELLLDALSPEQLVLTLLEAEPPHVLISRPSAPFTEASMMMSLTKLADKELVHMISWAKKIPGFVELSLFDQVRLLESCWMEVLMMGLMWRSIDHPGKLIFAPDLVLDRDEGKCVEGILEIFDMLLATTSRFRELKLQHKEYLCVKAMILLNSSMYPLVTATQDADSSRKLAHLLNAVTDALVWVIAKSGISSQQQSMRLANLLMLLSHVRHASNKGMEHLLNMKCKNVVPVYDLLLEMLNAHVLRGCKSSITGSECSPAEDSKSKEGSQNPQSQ
# Sequence of UniProt P06401 (P06401 whole entry, looked up): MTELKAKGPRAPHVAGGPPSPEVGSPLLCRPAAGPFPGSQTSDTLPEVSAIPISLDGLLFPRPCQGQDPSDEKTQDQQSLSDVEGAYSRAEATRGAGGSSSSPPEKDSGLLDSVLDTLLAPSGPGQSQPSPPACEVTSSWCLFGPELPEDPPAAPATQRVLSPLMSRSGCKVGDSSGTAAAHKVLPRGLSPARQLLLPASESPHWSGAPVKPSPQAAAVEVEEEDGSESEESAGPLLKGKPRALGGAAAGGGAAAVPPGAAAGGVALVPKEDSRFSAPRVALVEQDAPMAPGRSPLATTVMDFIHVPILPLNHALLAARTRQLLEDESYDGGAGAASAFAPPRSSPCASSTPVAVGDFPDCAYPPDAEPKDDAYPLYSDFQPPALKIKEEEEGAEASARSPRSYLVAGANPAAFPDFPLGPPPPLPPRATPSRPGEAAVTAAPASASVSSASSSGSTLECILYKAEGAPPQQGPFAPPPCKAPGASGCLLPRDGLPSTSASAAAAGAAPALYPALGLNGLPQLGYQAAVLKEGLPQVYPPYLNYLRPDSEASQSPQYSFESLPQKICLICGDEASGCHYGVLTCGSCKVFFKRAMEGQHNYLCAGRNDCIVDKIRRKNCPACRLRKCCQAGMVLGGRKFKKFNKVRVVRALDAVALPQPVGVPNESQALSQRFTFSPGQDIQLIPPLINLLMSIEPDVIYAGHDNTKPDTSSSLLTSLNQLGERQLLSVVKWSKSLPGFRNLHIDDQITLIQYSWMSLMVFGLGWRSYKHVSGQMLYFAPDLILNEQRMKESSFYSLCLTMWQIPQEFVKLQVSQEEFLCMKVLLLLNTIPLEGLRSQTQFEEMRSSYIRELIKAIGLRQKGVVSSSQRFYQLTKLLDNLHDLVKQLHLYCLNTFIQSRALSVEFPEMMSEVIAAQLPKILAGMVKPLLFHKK
# Sequence of UniProt P16473 (P16473 whole entry, looked up): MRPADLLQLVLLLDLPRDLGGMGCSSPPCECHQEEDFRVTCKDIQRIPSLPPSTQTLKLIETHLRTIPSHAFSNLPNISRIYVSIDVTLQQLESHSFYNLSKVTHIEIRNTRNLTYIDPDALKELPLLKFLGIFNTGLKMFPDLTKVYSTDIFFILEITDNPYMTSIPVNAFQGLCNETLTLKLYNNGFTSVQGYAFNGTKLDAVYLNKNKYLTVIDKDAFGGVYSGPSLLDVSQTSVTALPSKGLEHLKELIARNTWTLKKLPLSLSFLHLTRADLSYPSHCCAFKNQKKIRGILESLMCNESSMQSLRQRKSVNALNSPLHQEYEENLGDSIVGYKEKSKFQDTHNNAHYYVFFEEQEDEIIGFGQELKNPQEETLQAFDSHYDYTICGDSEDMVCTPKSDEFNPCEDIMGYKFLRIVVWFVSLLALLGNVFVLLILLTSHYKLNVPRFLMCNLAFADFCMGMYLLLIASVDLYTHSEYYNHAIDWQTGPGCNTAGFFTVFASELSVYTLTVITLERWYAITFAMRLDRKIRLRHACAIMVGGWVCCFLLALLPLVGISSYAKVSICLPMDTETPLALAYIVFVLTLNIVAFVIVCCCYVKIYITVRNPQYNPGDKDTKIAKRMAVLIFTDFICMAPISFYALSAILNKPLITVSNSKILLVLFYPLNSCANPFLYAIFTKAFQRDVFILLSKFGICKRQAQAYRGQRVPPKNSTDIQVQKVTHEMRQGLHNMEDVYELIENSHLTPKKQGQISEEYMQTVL
smiles,measurement,setting,value
O=C(Nc1ccccc1)Nc1cnns1,Potency,[1],active: 30.6 µM
same,Potency,[2],inconclusive: 9.68 µM [inhibitor]
same,"activity, negative = inhibition",[3],inconclusive: -39.7%
same,Potency,[4],"inconclusive: 12.2 µM [cytotoxic, partial curve]"
same,Potency,[5],"inconclusive: 68.5 µM [falling, partial curve, poor fit]"
same,Potency,[6],"inconclusive: 54.4 µM [falling, partial curve]"
same,Potency,[7],"inconclusive: 68.5 µM [rising, single point]"
Cc1ccc(N)cc1C,Potency,[1],inactive
COc1cccc2c1C(=O)c1c(O)c3c(c(O)c1C2=O)C[C@@](O)(C(=O)CO)CC3OC1CC(N2CCOC(OC)C2)C(O)C(C)O1 (some centres undefined),Potency,[1],"inconclusive: 29.8 µM [inhibitor, single point]"
same,Potency,[8],active: 0.168 µM
same,Potency,[2],active: 0.0067 µM
same,Potency,[3],active: 0.168 µM
same,"activity change, negative = inhibition",[9],inconclusive: -13.6% [at 42.5 µM]
same,Potency,[10],active: 10.6 µM
same,activation,[5],inconclusive: -11.1% [at 42.5 µM]
same,Potency,[6],inconclusive: 0.237 µM
same,Potency,[11],active: 0.266 µM
same,Potency,[7],"inconclusive: 1.06 µM [rising, full curve]"
Cc1cc2c3c(c1)C(c1ccccc1)=N[C@@H](NC(=O)c1ccncc1)C(=O)N3CC2,Potency,[1],inactive
same,Potency,[2],"inconclusive: 2.43 µM [inhibitor, full curve]"
same,Potency,[6],inactive
same,Potency,[7],inactive
CON(C)C(=O)Nc1ccc(Br)c(Cl)c1,Potency,[1],active: 27.3 µM
same,Potency,[2],"inconclusive: 68.6 µM [inhibitor, single point]"
same,Potency,[12],"inconclusive: 54.5 µM [rising, partial curve, poor fit]"
same,Potency,[3],inactive
same,Potency,[4],"inconclusive: 68.6 µM [cytotoxic, single point]"
same,Potency,[6],"inconclusive: 48.6 µM [rising, partial curve]"
same,Potency,[11],"inconclusive: 68.6 µM [rising, single point]"
